According to PubChem BioAssay AID1347428 (National Center for Advancing Translational Sciences (NCATS), 2020):
Screen size: about 91,000 compounds; about 290 (0.32%) were called active. The inconclusive results got no clear call from the source; some entries with a clear call stand among them for comparison. Calls follow the shape of the dose curve; as a rule, active = well fitted inhibition curve with a large enough effect; inconclusive = small, poorly fitted or top-dose-only effect; inactive = no such curve, though single readings can be large or run the other way. Potencies beside an inconclusive call are fits to weak or partial responses and may not hold up.

molecular target: Single-stranded DNA cytosine deaminase (Homo sapiens) (UniProt Q9GZX7); experiment: Primary qHTS assay for inhibitors of Activation Induced Cytidine Deaminase (AID): AID signal; details: AID deamination FRET fluorescence, UDG-coupled, 4 h; activity change, negative = inhibition: at 115 µM (top of the series); also: nearly all actives have a fitted effect of over 25% in size
% is scaled to controls: 0 for no effect and ±100 for the full control effect; potency is read from the fitted curve at half-maximal effect; tags tell the direction and shape of the fitted curve.

UniProt Q9GZX7, sequence (Q9GZX7 whole entry, looked up): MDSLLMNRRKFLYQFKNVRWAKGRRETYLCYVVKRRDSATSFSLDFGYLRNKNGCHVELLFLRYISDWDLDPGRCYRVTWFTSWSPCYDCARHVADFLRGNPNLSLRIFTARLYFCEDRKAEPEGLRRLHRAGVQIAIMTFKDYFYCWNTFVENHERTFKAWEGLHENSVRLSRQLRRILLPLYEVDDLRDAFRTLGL

Row | Compound | Potency | activity change, negative = inhibition
1 | Cc1ccc(C)c(CNC(=O)c2cnc3sc(N4CCCC4)nn3c2=O)c1 | inconclusive: 70.8 µM [inhibitor, partial curve, poor fit] | 
2 | CCOc1ccc(C(=O)c2cn(Cc3ccc(F)cc3)c3ccc(F)cc3c2=O)cc1 | inconclusive: 35.5 µM [inhibitor, partial curve, poor fit] | 
3 | Cc1ccsc1CN(C(=O)c1oc2ccccc2c1C)C1CCS(=O)(=O)C1 (stereo unspecified) | inconclusive: 100 µM [inhibitor, single point] | 
4 | CCOc1cc(C(=O)Nc2ccc(OC)cc2)nc2ccc(Cl)cc12 |  | inactive: 3.33%
5 | COc1cccc(/C=C(/C#N)C(=O)c2c(Cl)cccc2Cl)c1OC |  | inactive: -1.02%
6 | O=C(Cn1cc(S(=O)(=O)N2CCCC2)ccc1=O)c1c[nH]c2ccccc12 |  | inactive: -2.89%
7 | Cc1cc(C)cc(Nc2cc(C(=O)NCc3ccccc3)c3ccccc3n2)c1 | inconclusive: 11.2 µM [inhibitor, full curve, poor fit] | 
8 | CC12CC3CC(C)(C1)CC(C(=O)NC(C)(C)CO)(C3)C2 |  | inactive: 0.476%
9 | O=C(CN1C(=O)C2(SCC(=O)N2c2ccc(F)cc2)c2ccccc21)NCCc1ccccc1 (stereo unspecified) | inconclusive: 20 µM [inhibitor, full curve, poor fit] | 
10 | CN(C)c1ccc(C=Nc2ccc(O)cc2)cc1 | inconclusive: 39.8 µM [inhibitor, full curve, poor fit] | 
11 | COc1ccc(/C(C)=N/O)c(F)c1 |  | inactive: -0.0759%
12 | Cc1ccc(N2CCN(C(=O)c3nn(C)c4c3CCc3sccc3-4)CC2)c(C)c1 | inconclusive: 44.7 µM [inhibitor, partial curve, poor fit] | 
13 | COCCNC(=O)c1cc(-c2ccc(OC)cc2)nc2ccccc12 |  | inactive: 4.63%
14 | Cc1ccc(Cl)cc1-n1ncc2c(N3CCC(C)CC3)ncnc21 | inconclusive: 50.1 µM [inhibitor, partial curve, poor fit] | 
15 | O=S(=O)(NCCO)c1ccc(Cl)c2ccccc12 |  | inactive: -17.9%
16 | CCOc1ccc(Nc2nc(C)c(NC(=O)c3cccc(OC)c3)c(Nc3ccc(OCC)cc3)n2)cc1 | inconclusive: 17.8 µM [inhibitor, partial curve, poor fit] | 
17 | Cc1ccc(/C=N/Nc2ccc(Cl)c(Cl)c2)c(C)c1 |  | inactive: -8.92%
18 | Cn1c(=O)[nH]c(=O)c2c1nc1n2CCN1c1ccccc1 | inconclusive: 3.55 µM [inhibitor, full curve, poor fit] | 
19 | O=C(Cn1ncc2c3ccccc3n(Cc3ccccc3F)c2c1=O)N1CCCCC1 | inconclusive: 79.4 µM [inhibitor, partial curve] | 
20 | CC(C)CN(CCCNC(=O)CN1N=C(c2ccccc2)CCC1=O)CC(C)C | inconclusive: 25.1 µM [inhibitor, full curve, poor fit] | 
21 | CCOC(=O)C1=C(CN(CC)Cc2ccccc2)NC(=O)NC1c1ccc(OC(C)C)cc1 (stereo unspecified) | inconclusive: 44.7 µM [inhibitor, partial curve, poor fit] | 
22 | O=C(Nc1ccccc1C1CC1)C1CC1 |  | inactive: 3.91%
23 | CCCCSCCCNC(=O)C1CCN(Cc2nc(-c3cccc(Br)c3)oc2C)CC1 |  | inactive: 3.31%

Row | Compound | Potency | activity change, negative = inhibition
24 | CCSc1nc2c(c(=O)n(C)c(=O)n2C)n1C/C=C/c1ccccc1 | inconclusive: 56.2 µM [inhibitor, partial curve, poor fit] | 
25 | Cc1cccn2c(=O)c3cc(C(=O)N(Cc4ccccc4)C(C)C)sc3nc12 | active: 79.4 µM | 
26 | Cc1ccc2c(c1)-c1c(c(C(=O)N3CCN(c4cc(Cl)ccc4C)CC3)nn1C)CS2 | inconclusive: 25.1 µM [inhibitor, full curve] | 
27 | O=S(=O)(c1ccc(Cl)cc1)c1nnn2c1nc(N1CCCCC1)c1sccc12 | inconclusive: 22.4 µM [inhibitor, full curve, poor fit] | 
28 | COc1ccc(CCN2CCC(CNC(=O)c3cnn(-c4ccccc4)c3C3CCN(C(=O)OC(C)(C)C)CC3)CC2)cc1 | inconclusive: 50.1 µM [inhibitor, partial curve, poor fit] | 
29 | Cc1ccc(Cc2nc3ccccc3nc2SCC(=O)N2CCCCC2C)cc1 (stereo unspecified) | active: 50.1 µM | 
30 | Oc1ccc(NCc2ccc(OCc3ccccc3Cl)cc2)cc1 | active: 35.5 µM | 
31 | CC(C)CCNC(=O)c1ccc2c(c1)N(Cc1ccccc1F)C(=O)c1ccccc1S2=O (stereo unspecified) | inconclusive: 56.2 µM [inhibitor, partial curve, poor fit] | 
32 | O=C(O)c1cc2ccc(Br)cc2[nH]1 |  | inactive: -3.13%
33 | Cc1ccc(Cn2c(CCCNC(=O)C3CCCCC3)nc3ccccc32)cc1 | inconclusive: 50.1 µM [inhibitor, partial curve] | 
34 | O=C(NCCc1csc2nc(-c3ccc(F)cc3)nn12)c1ccco1 |  | inactive: -18.6%
35 | CC(Nc1cccc(N2CCCC2=O)c1)c1nc(C(C)(C)C)no1 (stereo unspecified) |  | inactive: 1.19%
36 | CCN(C(=O)c1cc2c(s1)-c1c(C)cccc1OC2)c1cc(C)ccc1C | inconclusive: 44.7 µM [inhibitor, partial curve, poor fit] | 
37 | COc1ccc2nc(C)cc(SCC(NC(C)=O)C(=O)O)c2c1 (stereo unspecified) |  | inactive: -11.7%
38 | CCCc1cc(=O)[nH]c(SCc2noc(-c3ccc(F)cc3)n2)n1 |  | inactive: -6.5%
39 | COc1ccc(N2CCN(C(=O)CSCc3nc(-c4ccccc4Cl)oc3C)CC2)cc1 | inconclusive: 56.2 µM [inhibitor, partial curve, poor fit] | 
40 | CC(C)NC(=O)Nc1cccc(C(=O)NC(C)c2cccc(Cl)c2)c1 (stereo unspecified) |  | inactive: -6.19%
41 | CCOc1ccc(NC(=O)CN(C)S(=O)(=O)c2ccc3c(c2)c(=O)n(C)c(=O)n3C)cc1 | active: 22.4 µM | 
42 | Cc1ccc(C(=O)NCC(c2cccs2)S(=O)(=O)c2cccs2)cc1C (stereo unspecified) | inconclusive: 31.6 µM [inhibitor, full curve] | 
43 | COc1ccc(N2CCN(C(=O)Cn3ncc4c3-c3cc(C)ccc3OC4)CC2)cc1 |  | inactive: -4.2%
44 | N#Cc1nc(-c2ccccc2)c(-c2ccc3c(c2)-c2cc(-c4nc(C#N)c(C#N)nc4-c4ccccc4)ccc2C3=O)nc1C#N |  | inactive: 41.2%
45 | C/C=C/C=C/C(=O)NCc1cccc(OC)c1 |  | inactive: -9.22%
46 | CC(C)(Oc1ccc(Cl)cc1)c1nn2c(COc3ccc(F)cc3)nnc2s1 | inconclusive: 35.5 µM [inhibitor, partial curve, poor fit] | 
